# According to article PMC4336329 (PLoS ONE, 2015):
# Hit rate of the full screen: of about 310,000 compounds, about 2,200 (0.71%) showed an effect of 50% or more. Effects have a minus sign here. The list shows a part of the results.
# Target: human ether-à-go-go-related gene (hERG) potassium channel (human, UniProt Q12809)
# Test: primary screen, population patch clamp on CHO cells stably expressing hERG
# human ether-à-go-go-related gene (hERG) potassium channel, sequence (Q12809 whole entry, looked up): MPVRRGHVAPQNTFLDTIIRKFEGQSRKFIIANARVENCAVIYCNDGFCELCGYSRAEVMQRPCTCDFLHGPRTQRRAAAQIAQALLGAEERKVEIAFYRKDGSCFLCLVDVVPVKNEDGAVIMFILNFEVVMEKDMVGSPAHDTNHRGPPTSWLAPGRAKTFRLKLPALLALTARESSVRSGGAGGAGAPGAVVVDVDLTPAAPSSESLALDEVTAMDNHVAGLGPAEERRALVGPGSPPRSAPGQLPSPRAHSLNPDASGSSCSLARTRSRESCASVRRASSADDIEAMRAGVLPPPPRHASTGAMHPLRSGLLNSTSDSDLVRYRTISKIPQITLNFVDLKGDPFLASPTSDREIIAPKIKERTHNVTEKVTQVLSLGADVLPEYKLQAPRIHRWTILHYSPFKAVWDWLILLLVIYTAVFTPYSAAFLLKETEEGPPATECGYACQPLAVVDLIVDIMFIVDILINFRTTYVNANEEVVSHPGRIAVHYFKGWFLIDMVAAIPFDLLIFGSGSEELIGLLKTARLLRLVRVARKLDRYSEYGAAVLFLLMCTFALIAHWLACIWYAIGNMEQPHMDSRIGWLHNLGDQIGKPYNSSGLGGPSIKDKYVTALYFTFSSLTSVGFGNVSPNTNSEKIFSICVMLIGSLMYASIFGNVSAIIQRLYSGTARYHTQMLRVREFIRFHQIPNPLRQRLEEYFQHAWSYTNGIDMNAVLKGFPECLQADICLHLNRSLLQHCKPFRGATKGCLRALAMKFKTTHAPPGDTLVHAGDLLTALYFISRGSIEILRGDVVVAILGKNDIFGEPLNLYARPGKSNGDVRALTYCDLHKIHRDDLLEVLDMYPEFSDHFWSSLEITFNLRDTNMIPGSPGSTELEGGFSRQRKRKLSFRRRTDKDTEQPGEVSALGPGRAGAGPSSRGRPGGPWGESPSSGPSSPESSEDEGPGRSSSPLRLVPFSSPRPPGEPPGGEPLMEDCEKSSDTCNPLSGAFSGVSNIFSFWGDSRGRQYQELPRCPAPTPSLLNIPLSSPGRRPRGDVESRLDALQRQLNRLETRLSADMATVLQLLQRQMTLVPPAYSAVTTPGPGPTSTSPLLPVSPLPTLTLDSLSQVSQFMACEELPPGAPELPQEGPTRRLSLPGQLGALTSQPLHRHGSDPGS
row,Compound,"hERG current change (%, negative = inhibition) at 1uM [%]"
1,O=C(N/N=C/c1cccn1-c1ccc([N+](=O)[O-])cc1)c1cccnc1,2.29
2,COc1ccc(C(=O)COC(=O)c2ccc(OC)c(OC)c2)cc1OC,3.77
3,COc1ccc(CNC(=O)c2cc(-c3ccncc3)nc3c(C)cc(C)cc23)cc1OC,11
4,S=C(NCc1ccc2[nH]c3c(c2c1)CCCC3)Nc1ccccc1,12.3
5,CCOC(=O)Cn1nc(Cc2ccccc2)c2ccccc2c1=O,9.37
6,O=C(Oc1ccc(N(C(=O)c2ccncc2)S(=O)(=O)c2ccc(F)cc2)cc1)c1ccncc1,9.57
7,COc1cc2cc(C(=O)N3CCN(Cc4ccc5c(c4)OCO5)CC3)[nH]c2cc1OC,12
8,Cc1ccc(-n2c(C)cc(C(=O)COc3c(CO)cc(F)cc3CO)c2C)cc1C,-1.02
9,Cl.OC(COc1ccc(Cl)cc1)CN1CCCCC1 (stereo not drawn),-29.8
10,Cc1ccccc1-n1c(C)cc(/C=C2/C(=N)N3C(c4ccccc4)=CSC3=NC2=O)c1C,12.2
11,O=C(CSc1nc2ccccc2c(=O)n1-c1ccc(F)cc1)Nc1ccc2c(c1)CCC2,11.7
12,O=C(CNC(=O)c1ccccc1)OCC(=O)c1ccc(Cl)s1,3.78
13,COc1cc(CN2CCC(C(=O)NC3CCCC3)CC2)cc(Br)c1O.O=C(O)C(=O)O,-13
14,COc1ccc(N2CCN(C(=O)c3cc(N4C(=O)C5C6CCC(C6)C5C4=O)ccc3Cl)CC2)cc1 (stereo not drawn),5.73
15,CC(NC(=O)Nc1ccc(O)cc1)(C(F)(F)F)C(F)(F)F,18
16,CCn1ncc(C(=O)Nc2ccccc2C)c1C,4.2
17,CCOc1ccc(C(CC(=O)O)NC(=O)C(CC)c2ccccc2)cc1 (stereo not drawn),9
18,COc1ccc(-c2nnc(SC)n2C)cc1,5.58
19,Cc1ccc(S(=O)(=O)N2CCN(c3nccnc3C#N)CC2)cc1,-3.83
20,Cc1ccc(S(=O)(=O)NCCCCCC(=O)Nc2ccccc2C)cc1,5.43
21,Cc1ccccc1NC(=O)c1ccccn1,11.4
22,COc1cc(-c2nnc(SCC(=O)c3ccccc3)o2)cc(OC)c1OC,12.8

row,Compound,"hERG current change (%, negative = inhibition) at 1uM [%]"
1,COc1cccc2c1cc1c(=O)n(CC(=O)NCCCc3ccccc3)nc(C)n12,3
2,Cc1ccccc1C[n+]1cccc2ccccc21.[Br-],0.0109
3,CCOc1ccc(N2C(=O)Nc3ccc(Br)cc3C2(O)C(=O)NCCCN(C)C)cc1 (stereo not drawn),12.6
4,Cl.OC(COc1ccc2c(c1)OCO2)CN1CCN(c2ccccc2)CC1 (stereo not drawn),12.7
5,CC(=O)c1cccc(NC(=S)NC(=O)c2cncc(Br)c2)c1,10.1
6,C[C@H](NC(=O)c1nc[nH]c1C(=O)NCc1ccccc1)c1ccccc1,12.1
7,CC1CCCCC1NC(=O)c1nnc(Cc2ccc(Cl)cc2)o1 (stereo not drawn),-0.665
8,O=C(Nc1ccccn1)c1ccc(S(=O)(=O)N2CCCCC2)cc1,8.6
9,CCOC(=O)c1nn(-c2ccccc2F)c2nc(Nc3ccccc3)cc(=O)n12,9.69
10,Cc1c(C(=O)N2CCc3ccccc3C2)sc2nc(-c3ccccc3)cn12,8.64
11,CCC(C)Sc1nc2c(cnn2-c2ccc(C)c(C)c2)c(=O)[nH]1 (stereo not drawn),0.874
12,OCc1cn(-c2ccccc2)nc1-c1ccc(Br)cc1,12.6
13,O=C(c1noc2c1CCCC2)N1CCN(Cc2ccccc2)CC1,4.17
14,O=C(Cn1cc(Br)ccc1=O)Nc1ccc2c(c1)OCO2,19.5
15,O=C(N/N=C/c1ccco1)c1cc(-c2ccccc2)nc2ccccc12,8.72
16,CC1=CC(C)=[NH+]c2ccc(C)cc2N1.[Cl-],4.42
17,CCOc1cccc(C(=O)Nc2cccnc2)c1,4.56
18,CCCC(=O)Nc1ccc(N2CCN(C(=O)c3cccs3)CC2)cc1,-1.23
19,COc1cc(OC)cc(C(=O)N2CCN(Cc3ccc4c(c3)OCO4)CC2)c1.O=C(O)C(=O)O,8.19
20,Cc1cc(C=O)c(C)n1-c1sc2c(c1C(=O)O)CCCC2,7.27
21,O=C(CN1CCN(c2ccccc2)CC1)c1ccc2cc[nH]c2c1,11.6
22,Cc1ccc(S(=O)(=O)N2CCCC(C(=O)NC3CCCC3)C2)cc1Cl (stereo not drawn),24.8

row,Compound,"hERG current change (%, negative = inhibition) at 1uM [%]"
1,Cc1ccccc1OCC(=O)NCCNC(=O)c1cccnc1,22.9
2,CCCCS(=O)(=O)N1C2=NC(C(=O)OC)=C(C(=O)OC)[C@@H]3N(C)c4ccc(OC)cc4[C@]23C[C@H]1C(=O)OC,8.48
3,O=C(CNCC1CCCO1)Nc1ccc(N2CCCCCC2)cc1.O=C(O)C(=O)O (stereo not drawn),-7.7
4,O=C(O)c1ccc(N=Cc2c(O)ccc3ccccc23)cc1,17.8
5,CN(C)S(=O)(=O)c1cc(C(=O)NCC2CCCO2)c(Cl)cc1Cl (stereo not drawn),7.06
6,CCCCn1c(O)c(C(C)=NCCN2CCCCC2)c(=O)[nH]c1=O,-1.95
7,O=c1[nH]nc2c3ccccc3cnn12,3.75
8,COc1ccc(NC(=O)OCCN2CCN(Cc3ccccc3)CCC2=O)cc1,6.27
9,O=[N+]([O-])c1ccc(N2CCN(C(=S)c3cccc([N+](=O)[O-])c3)CC2)cc1,-16.7
10,Cc1cc2c(c(=O)n1Cc1cccnc1)C(c1ccc(F)cc1)C(C#N)=C(N)O2 (stereo not drawn),10.6
11,COc1ccc(NC(=S)c2ccc3ccccc3n2)cc1,26.7
12,COc1cc(OC)c(C2C(C#N)=C(N)OC3=C2C(=O)CC(C)(C)C3)cc1OC (stereo not drawn),10.2
13,Cc1cccc(C(=O)Nc2ccc(N3CCN(C(=O)c4ccco4)CC3)cc2)c1,10.5
14,C/C(CC(=O)Nc1ccccn1)=N\NC(=O)c1ccc(C)cc1,2.42
15,C=CCN(C(=O)CNC(=O)c1ccco1)C(C(=O)NC1CCCCC1)c1ccc(OC)cc1 (stereo not drawn),14.4
16,COc1ccc(C(=O)N2CCN(C(=O)c3ccncc3)CC2)cc1,13.8
17,COc1ccc(/C=N/NC(=O)C(=O)NCc2cccnc2)cc1OC,-11.8
18,O=S(=O)(c1cc(Cl)ccc1Cl)N1CCN(c2ccccn2)CC1,9.68
19,Cc1ccc(CC(=O)Nc2ccc(S(=O)(=O)N3CCOCC3)cc2)cc1,7.26
20,CN(C)C(=O)Oc1ccc(Br)c2ccccc12,8.12
21,CNC(=O)c1cccn(Cc2cccc(C(F)(F)F)c2)c1=O,12.1
22,CCn1c(SCC(=O)N/N=C/c2c[nH]c3ccccc23)nnc1-c1ccc(Cl)cc1,4.45

row,Compound,"hERG current change (%, negative = inhibition) at 1uM [%]"
1,O=C(N/N=C1\CC(c2ccccc2)Oc2ccccc21)c1ccccn1 (stereo not drawn),11
2,Cc1nc2c(-c3ccc(F)cc3)cnn2c(N)c1-c1ccccc1,16
3,O=C(Nc1ccccc1Cl)C1C2CCC3C(CCC21)C3(Cl)Cl (stereo not drawn),10.9
4,COc1cccc(OC)c1C(=O)Nc1ccc(NC(=O)c2ccco2)cc1,8.51
5,CCOCCOC(=O)COC(=O)c1ccccc1NC(=O)c1ccccc1,10.7
6,COc1ccc(C2C=C(Nc3ccccc3)C(=O)N2c2ccccc2)cc1OC (stereo not drawn),20.1
7,Cc1cc(N2CCOCC2)nc(SCc2c(Cl)cccc2Cl)n1,1.88
8,COc1ccc(/C=N\n2nnc3ccccc32)cc1,7.28
9,Cc1ccc(-n2c(C)cc(C3N=C(N)Nc4nc5ccccc5n43)c2C)c(C)c1 (stereo not drawn),1.8
10,O=C(COc1ccc(Cl)cc1)Nc1c(-c2cccs2)nc2ccccn12,9.44
11,Cc1cc(N/N=C/c2ccccc2Br)nc2ccccc12,14.7
12,C=C(C)CSc1nc2ccccc2c(=O)n1-c1c(C)n(C)n(-c2ccccc2)c1=O,13.7
13,CC(NC(=O)Cc1ccc(S(=O)(=O)N2CCOCC2)s1)c1ccc(Cl)cc1Cl (stereo not drawn),17.2
14,CCOc1ccc2oc(C(=O)OCC(=O)N3CC(C)OC(C)C3)c(C)c2c1 (stereo not drawn),14.4
15,COC(=O)c1ccc(-n2nnnc2SCC(=O)NCc2cccc(C(=O)O)c2)cc1,7.96
16,Cc1ccc(NC(=O)CSc2ccc(C(N)=O)cc2[N+](=O)[O-])cc1C,11.1
17,CCN(CC)CCn1c(/N=C/c2ccc(OC)c(OC)c2)nc2ccccc21,-11.1
18,CCN(CC)C(=O)CC(c1ccc(OC)cc1)c1c(OC)cc(OC)c2ccc(=O)oc12 (stereo not drawn),11.6
19,COC(=O)CN(c1ccccc1)S(=O)(=O)c1ccc(F)cc1,15.7
20,CCN(CC)c1ccc(NC(=O)CSc2n[nH]c(-c3ccco3)n2)cc1,0.0263
21,OCCC1CN(Cc2cccc3nccnc23)CCN1Cc1ccc(F)c(F)c1 (stereo not drawn),-11.8
